Assay results taken from the supplement of paper PMC3334620.
Whole data set: some 33,000 sequences, median “E-score (-0.5 to 0.5)” near -0.043, cut for the highest 2% near 0.37. The list shows a part of the results.

What follows are sequences tested against T1, Upc2 (UniProt Q12151) (assay: PBM E-score (8-mer binding enrichment) (E-score (-0.5 to 0.5)); higher = stronger / more preferred TF binding; most listed sequences are background and not binding sites). Details: protein concentration: 200 nM; construct: GST-full length.
T1 sequence: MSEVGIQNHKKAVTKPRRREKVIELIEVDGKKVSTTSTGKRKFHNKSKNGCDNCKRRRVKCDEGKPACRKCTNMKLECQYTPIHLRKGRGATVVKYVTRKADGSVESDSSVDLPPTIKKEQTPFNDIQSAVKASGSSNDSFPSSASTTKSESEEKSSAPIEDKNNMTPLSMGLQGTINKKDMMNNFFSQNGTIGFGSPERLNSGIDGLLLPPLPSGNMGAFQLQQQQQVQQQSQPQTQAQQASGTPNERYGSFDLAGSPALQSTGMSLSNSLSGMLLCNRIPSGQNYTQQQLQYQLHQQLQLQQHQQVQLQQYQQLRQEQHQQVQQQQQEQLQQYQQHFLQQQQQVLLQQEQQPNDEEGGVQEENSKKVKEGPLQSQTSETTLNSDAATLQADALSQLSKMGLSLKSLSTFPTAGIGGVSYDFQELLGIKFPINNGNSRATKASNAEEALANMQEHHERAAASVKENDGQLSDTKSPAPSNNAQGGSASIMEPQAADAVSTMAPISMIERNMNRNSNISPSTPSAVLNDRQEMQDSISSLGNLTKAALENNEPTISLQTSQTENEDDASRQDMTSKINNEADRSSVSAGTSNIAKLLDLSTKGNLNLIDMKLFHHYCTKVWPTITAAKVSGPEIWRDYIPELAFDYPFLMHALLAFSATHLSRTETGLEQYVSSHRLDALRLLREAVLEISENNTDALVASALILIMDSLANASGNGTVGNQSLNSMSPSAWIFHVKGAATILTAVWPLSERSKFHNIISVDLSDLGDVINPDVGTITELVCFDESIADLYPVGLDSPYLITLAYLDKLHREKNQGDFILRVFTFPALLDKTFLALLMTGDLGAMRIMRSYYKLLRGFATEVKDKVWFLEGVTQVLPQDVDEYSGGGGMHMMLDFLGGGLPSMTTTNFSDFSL
How it was run: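 Detection of bound protein used fluorescent anti-GST, with scans normalised by masliner. The proteins were GST-tagged yeast transcription factors applied at about 100-200 nM to universal all-10-mer Agilent arrays made double-stranded by primer extension. Each ungapped eight-base word, pooled with its reverse complement, was scored with an E-score from the Universal PBM Analysis Suite.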

Sequence | PBM E-score
AGGGGCTA | -0.0284
CGTGCCAA | -0.129
ATTGTAAA | 0.124
ATTCAACG | 0.142
ACCTATAC | 0.382
ATGGACTC | -0.0753
TATAGATA | 0.177
CTGGGTCA | -0.239
CTAAACGC | 0.416
GCATGGGC | -0.0794
TACCACCA | -0.12
ATTTCTGA | -0.166
AAGCCCCC | -0.0762
ATACTTAG | -0.0525
GGCCTGCA | -0.162
AGTTTTCG | 0.124
GGGGCAAC | -0.0845
CCCTCATA | -0.217
TGCTCGAA | -0.0598
CCCTAAAC | 0.307
ATAGAATG | -0.0602
CGCGAGCA | 0.0612
GTTTCTGA | 0.0261
AGACTAAC | -0.122
ACCGTAAC | 0.27

Sequence | PBM E-score
AACCAGAT | 0.0627
GGGAGTTA | -0.0875
CGGACCAA | -0.0814
CGGGTCTC | 0.00304
ATACTCAA | 0.0423
CTCCAACA | -0.134
CATACGAC | 0.466
CATTAGGC | -0.217
AGTTCAAC | 0.00196
CATGCCGA | 0.0455
AGTCTACA | -0.115
CAACTGTG | -0.215
AGGGGGCG | 0.0377
AGACCTAA | -0.0495
CAATCCCC | -0.169
TCTAGAAA | -0.00692
TAATACGA | 0.429
CTCTATAC | 0.397
AGCGCTAA | 0.15
AAGTTAAG | -0.141
ATTAGTGG | -0.127
ACCGTTTA | 0.458
AATGTGGT | -0.156
CGGACTCA | -0.244
TAACAAGA | -0.275

Sequence | PBM E-score
AATAACCC | 0.0105
GGACTCCC | -0.22
AAATACAG | -0.0577
GATATGAC | -0.138
ACCTTCCA | 0.0128
AGGGCTTA | -0.107
ACGACCTA | 0.362
ATGCAGTG | -0.107
AATTCGCT | 0.192
AGCGTGAG | -0.135
GCAAGATA | 0.0262
CCTGTGGA | -0.331
GTGCTGGA | -0.0861
CTAGATGA | -0.00114
CAGGCACA | -0.374
AGAGGTGC | -0.139
GAGGTTTA | 0.0651
GTAATAAC | 0.0598
ACGCTAAC | 0.128
GCGACCGC | 0.08
ATGCCGGC | -0.13
GACGCCAC | -0.192
ATCGGACC | -0.0439
CCCCCAAC | -0.255
GTAGCAGA | 0.00158

Sequence | PBM E-score
ACCCCGCG | -0.0712
AAGGAAGC | -0.232
TAGAACCA | -0.0454
ACCTCAGT | -0.0386
AGTGAGTC | -0.211
AAGCGTTA | 0.0474
ATTTAGAG | -0.107
GCCCTTCC | -0.338
CAATTTGC | -0.192
GCTGGTCA | -0.0962
ATATGCAG | -0.22
CCTCAAAG | -0.39
AGCAGTGA | -0.0456
AGGGTCGA | -0.147
AACTGTCT | 0.00544
CCGTTTAG | 0.468
ATGGTGGA | -0.213
GCGAAGTA | 0.0732
ACCGGGGC | -0.16
CACGGTGG | -0.079
ATCGACAC | 0.0177
ACGGTGAC | -0.0336
CTTCACAA | -0.117
ACAATGAG | -0.0711
CCACGCTC | -0.281

Sequence | PBM E-score
AAGCGGAC | -0.133
ATTCGCTG | 0.0613
AACCGCTT | 0.0344
ATCGGGAG | -0.172
GACCGCGC | -0.0894
CGAGAAAC | 0.173
ACGTCGAT | 0.0778
ACTAACTC | -0.16
ACTTGTCT | -0.132
ATTCTCCA | 0.0431
AGACGGGA | -0.153
CCCCCACA | -0.254
CCACGCCC | -0.165
ACCAATCA | -0.0784
GTCTTTCA | -0.0186
ACAGACAT | 0.0642
ACGTTTGC | 0.138
TACCATGA | -0.108
AGGGCCCG | -0.126
CTGATAAG | -0.16
CAATTAGC | -0.13
CCGTCATA | -0.0362
ACACTTTA | 0.0396
ATCTTTCG | -0.0351
AACAGTGG | -0.123

Sequence | PBM E-score
CCTACCCC | -0.00901
GATAGTAC | 0.00652
CTGCCGAC | 0.03
ACATAAAA | 0.0446
AAATCAGA | -0.0799
CCCCGGAA | -0.159
CAACCTGG | -0.109
CCTCCCCC | -0.292
CATCGAGG | 0.0235
AGTGCCCC | -0.256
GTGCTCAA | 0.0126
ACCCACTA | -0.0604
TAGGGTAA | 0.0122
ACGTGAAA | 0.0802
CGCCATTC | -0.167
ATCATGAT | 0.11
ACGTCAAG | -0.0187
AAGGCACA | -0.124
GGTCATAA | -0.0481
CCGTGCAC | -0.14
AAATGCCA | -0.142
GGCGCGAC | 0.0597
AGAAAGTA | -0.0281
TCTCTCCA | -0.118
TCCCAGAA | 0.0528

Sequence | PBM E-score
CCTTACTA | 0.029
ACACTGTA | 0.106
ATTATTTA | 0.0995
ATATTCGA | 0.185
ACGTGTAA | 0.0268
AAGCGCAG | -0.0347
CAAGGACC | -0.0122
ATCCTCCC | -0.189
CATTACCA | -0.113
AGGCGGGG | -0.0481
AATCAATC | -0.0483
CTCCGTTA | 0.0683
GATGTTAA | -0.0488
ACAGATAA | -0.126
AGCGTACC | 0.212
CCCGAATC | -0.0515
TCGCCTCA | -0.0427
GTATGCGA | 0.357
CAGATGCC | -0.112
CCATTCAG | -0.352
GACGGGGA | -0.0559
CGCGGGCC | -0.172
